In PubChem BioAssay AID1346428 (National Center for Advancing Translational Sciences (NCATS), 2018):
Where “and” joins values, the source holds several entries; their conditions need not be identical. Equal entries are not always repeated. Screen size: about 48,000 compounds; about 1,200 (2.5%) were called active. About 2% were inconclusive and are not listed.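 How the source made its calls: active means activation of at least 60% and not above a set upper limit (about 1 call in 100 departs from these limits); inconclusive means activation of 40% to 60%, or above that upper limit; inactive means activation under 40%.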 This is one part of the list.

Molecular target: Probable G-protein coupled receptor 32 (Homo sapiens) (UniProt O75388)
Assay: qHTS for Agonists of Human Resolvin D1 Receptor DRV1; further: 0% is about no effect
Conditions: CHO-K1 GPR32 beta-arrestin PathHunter luminescence, 90 min; at 76.9 µM; hits give high values; zero percent set by DMSO-only wells
How it was run: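 Luminescent readout of beta-Gal complementation quantifies ligand-induced beta-arrestin association with GPR32 in CHO-K1 cells; 90 min compound incubation at 37 °C, detection 1 h at room temperature.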

UniProt O75388, sequence (O75388 whole entry, looked up): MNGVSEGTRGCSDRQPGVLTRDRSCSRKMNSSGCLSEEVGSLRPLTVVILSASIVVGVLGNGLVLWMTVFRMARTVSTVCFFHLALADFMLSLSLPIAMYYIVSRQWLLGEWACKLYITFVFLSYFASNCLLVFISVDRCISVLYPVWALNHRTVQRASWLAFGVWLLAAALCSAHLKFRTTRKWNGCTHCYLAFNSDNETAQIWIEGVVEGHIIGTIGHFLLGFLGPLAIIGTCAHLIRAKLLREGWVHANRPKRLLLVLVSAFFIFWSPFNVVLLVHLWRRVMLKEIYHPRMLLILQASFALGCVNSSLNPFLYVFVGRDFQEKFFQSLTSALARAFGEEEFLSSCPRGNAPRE

activation, inactive:
Cc1cccc2sc(N(CCCN(C)C)C(=O)COc3ccccc3)nc12 -20.6%
COC(=O)c1ccccc1NC(=O)Cn1c(=O)n(-c2cccc(C(F)(F)F)c2)c(=O)c2c(C)c(C)sc21 39.2%
O=C(/C=C\c1ccccc1)NC1CC(=O)N(c2ccccc2)C1 (configuration not stated) -13.7%
CCOC(=O)C1CCCN(C(=O)c2nn(-c3ccc(C)cc3)c(=O)c3c2c2ccccc2n3C)C1 (configuration not stated) -0.111%
CCCn1c(CCCNC(=O)c2ccccc2OC)nc2ccccc21 25.6%
CC(=O)CCCCn1c(=O)c2c(ncn2C)n(C)c1=O 12.1% and -3.06%
Cc1cc(C)c2c(n1)sc1c(=O)n(-c3cc(Cl)ccc3C)nnc12 -13.4%
CCOc1ccc(CNS(=O)(=O)c2ccc(-c3coc(C)n3)cc2)cc1OC 38.7%
CCN(Cc1ccccc1)C(=O)c1sc2nc3n(c(=O)c2c1C)CCCC3 -6.38%
CCN(CC)CCCNC(=O)c1nn(-c2ccc(C)cc2)c(=O)c2c1c1ccccc1n2C 1.27%
CCCCN(C)CCCNC(=O)Cn1ncc2c3ccccc3n(Cc3cc(C)ccc3C)c2c1=O -18.4%
COc1ccccc1CNC(=O)c1cc2c(s1)-c1ccccc1OC2 -22.3%
O=S(=O)(c1ccccc1)c1nnn2c1nc(NCc1ccccc1)c1sccc12 -7.56%
COCCNC(=O)Cn1c(=O)n(CCCCCC(=O)Nc2ccccc2)c(=O)c2sccc21 -13.6%
CCOCCCN(Cc1ccco1)C(=O)c1cc2c(=O)[nH]c3ccc(C)cc3c2s1 14.9%
CCc1ccc2c(c1)-c1ccccc1S(=O)(=O)N2CC(=O)N1CCCCC1 -21%
COc1ccc(-c2cn3c(n2)sc2cc(C(=O)NCCc4ccc(OC)cc4OC)ccc23)cc1 -3.42%
O=C(NCc1cccs1)c1ccc(Cn2c(SCc3ccc(F)cc3)nc3cccnc32)cc1 -23%
Cc1ccc(Cl)cc1N1CCN(C(=O)CN2C(=O)CSc3c2c(C)nn3-c2ccccc2)CC1 0%
COc1cccc(NC(=O)c2cnc(SCC(=O)N3CCOCC3)n(C)c2=O)c1 -0.885%
Fc1ccc(-c2cn3cc(Cc4ccccc4)sc3n2)cc1 -6.13%
COc1ccc(NC(=O)CSc2nc(-c3ccco3)cc(C(F)(F)F)n2)cc1Cl -2.35%
CCCN(CCC)C(=O)Cn1c(=O)n(-c2ccc(Cl)cc2)c(=O)c2c3c(sc21)CCCC3 -23.8%
CCc1ccc2oc(-c3cc(NC(=O)c4cc([N+](=O)[O-])ccc4N4CCOCC4)ccc3Cl)nc2c1 -0.296%
Cc1ccc(Cl)cc1N1CCN(C(=O)c2cc3c(-c4ccccc4F)nn(C)c3s2)CC1 11.2%
N#Cc1ccccc1NC(=O)CSc1nnc(N)s1 -11.3%
COc1ccc(CNC(=O)c2cnc(N3CCOCC3)c3ccccc23)cc1 -13.7%
CCCCS(=O)(=O)c1nc(-c2ccc(Br)cc2)cc(-c2ccccc2)c1C#N -28.5%
COc1ccc(-n2ncc(C(=O)N3CCOCC3)c2C2CCN(C(=O)OC(C)(C)C)CC2)cc1 -13%
Cc1cccc(NC(=O)CCc2c(C)nc3c(c(C)nn3C(C)(C)C)c2C)c1C 45.2%
O=C1COc2ccc(-c3cc(-c4ccccc4)c4c(n3)-c3cc(Cl)ccc3OC4)cc2N1 17%
C[C@@H]1CC[C@@]2(OC1)O[C@H]1C[C@H]3[C@@H]4CC[C@H]5C[C@@H](O)CC[C@]5(C)[C@H]4CC(=O)[C@]3(C)[C@H]1[C@@H]2C -25.1%
Cn1c(=O)c2sccc2n2c(CCCC(=O)NCc3ccccc3)nnc12 10.9%
CCN(C(=O)c1cn(CC)c(=O)c2cc(OC)c(OC)cc12)c1ccc(C)c(C)c1 4.34%
Cc1ccc(N2CCN(S(=O)(=O)c3ccc4[nH]c5c(c4c3)CCCCC5)CC2)c(C)c1 11%
CC1CCc2c(sc3nnn(CC(=O)Nc4ccc(Cl)cc4)c(=O)c23)C1 (configuration not stated) -19.1%
O=C(Nc1cccc(F)c1F)C1CCN(c2ncccn2)CC1 7.73%
CSc1cccc(NC(=O)Cn2ncn3c(cc4ccccc43)c2=O)c1 -7.17%
COc1ccc(-c2nc3c(c(SCC(=O)N4CCCCC4)n2)Cc2c(CO)cnc(C)c2O3)cc1 -9.35%
COC(=O)c1cc(NC(=O)c2ccc3c(c2)NC(=O)c2ccccc2S3)cc(C(=O)OC)c1 -18.4%
COc1cccc(-n2nnc(-c3nc(-c4ccccc4F)no3)c2C)c1 -9.2%
O=C(Nc1ccc(F)cc1)N1CCN(C(=O)c2nsc3ccccc23)CC1 10.3%
COC(=O)c1cc2occc2n1CC(=O)Nc1ccc(C(C)C)cc1 -11.5%
CCSc1nn(CC(=O)Nc2ccc(C(=O)OC)cc2)c(N)c1S(=O)(=O)c1ccc(C)cc1 11.4%
Cc1cccc(N2CCN(C(c3ccccc3)c3nnc(-c4ccccc4Cl)o3)CC2)c1C (configuration not stated) -30.5%
COc1ccc(OC)c(CNC(=O)CN2CC(C)Sc3ccccc32)c1 (configuration not stated) 20.6%
Cn1nnc2c(N3CCN(c4cccc(C(F)(F)F)c4)CC3)ncnc21 -3.95%
CCOc1ccccc1NC(=O)C(c1ccccc1)N1Cc2ccccc2C1=O (configuration not stated) -19.8%
Fc1ccccc1N1CCN(c2ncc3c(n2)CCN(Cc2cc(Br)cs2)C3)CC1 -7.16%
OCCN1CCN(CCCN2c3ccccc3C=Cc3ccccc32)CC1 -6.63% and -10.1%
Cc1cccc(NC(=O)CSc2nc3ccc(NC(=O)COc4ccccc4F)cc3s2)c1 -3.85%
Cc1ccc(NC(=O)C2CCCN2S(=O)(=O)c2ccc3c(c2)CCCC(=O)N3)cc1Cl (configuration not stated) 5.73%
